Several values for one entry are separate records, joined by “and”; a condition that tells them apart may be missing. Identical values can stand only once.
Legend:
[1] = molecular target: PF-7802-labelled proteins in ARPE-19 cells (Homo sapiens, UniProt P07900)
[2] = molecular target: PF-7802-labelled proteins in ARPE-19 cells (Homo sapiens, UniProt P50897); conditions: protein PPT1 Palmitoyl-protein thioesterase 1, P50897
[3] = molecular target: PF-7802-labelled proteins in ARPE-19 cells (Homo sapiens, UniProt P21333); conditions: P21333 FLNA Filamin-A
[4] = molecular target: PF-7802-labelled proteins in ARPE-19 cells (Homo sapiens, UniProt Q16778)
[5] = molecular target: PF-7802-labelled proteins in ARPE-19 cells (Homo sapiens, UniProt P84098)
[6] = molecular target: PF-7802-labelled proteins in ARPE-19 cells (Homo sapiens, UniProt P34931)
UniProt P34931, sequence (P34931 whole entry, the tested form may be a part): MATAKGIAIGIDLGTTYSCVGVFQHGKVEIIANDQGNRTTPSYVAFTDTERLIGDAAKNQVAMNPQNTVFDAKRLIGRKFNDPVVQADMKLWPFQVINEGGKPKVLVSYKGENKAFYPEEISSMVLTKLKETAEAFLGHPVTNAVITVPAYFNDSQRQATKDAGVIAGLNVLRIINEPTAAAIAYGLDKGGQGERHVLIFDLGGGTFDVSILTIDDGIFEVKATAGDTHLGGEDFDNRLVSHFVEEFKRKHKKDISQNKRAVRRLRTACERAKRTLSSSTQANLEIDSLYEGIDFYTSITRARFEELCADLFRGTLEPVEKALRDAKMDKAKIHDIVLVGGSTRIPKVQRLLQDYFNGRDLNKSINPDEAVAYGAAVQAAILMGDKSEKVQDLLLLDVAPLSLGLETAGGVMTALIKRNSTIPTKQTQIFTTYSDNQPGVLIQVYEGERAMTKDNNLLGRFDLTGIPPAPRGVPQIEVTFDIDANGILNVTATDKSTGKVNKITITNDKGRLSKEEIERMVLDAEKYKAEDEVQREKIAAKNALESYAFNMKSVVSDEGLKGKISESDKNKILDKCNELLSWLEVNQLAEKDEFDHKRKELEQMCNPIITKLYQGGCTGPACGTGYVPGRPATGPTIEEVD

[7] = molecular target: PF-7802-labelled proteins in ARPE-19 cells (Homo sapiens, UniProt Q14847); conditions: protein LASP1 LIM and SH3 domain protein 1 (Q14847); replicates in separate columns
UniProt Q14847, sequence (Q14847 whole entry, the tested form may be a part): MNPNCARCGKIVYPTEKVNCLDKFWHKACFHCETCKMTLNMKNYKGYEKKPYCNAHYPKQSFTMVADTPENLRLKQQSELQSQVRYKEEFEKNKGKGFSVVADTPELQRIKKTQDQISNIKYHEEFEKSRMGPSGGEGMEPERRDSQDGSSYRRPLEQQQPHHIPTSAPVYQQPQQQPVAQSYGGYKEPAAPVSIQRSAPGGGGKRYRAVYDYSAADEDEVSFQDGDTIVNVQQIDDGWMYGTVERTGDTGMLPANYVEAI

[8] = molecular target: PF-7802-labelled proteins in ARPE-19 cells (Homo sapiens, UniProt Q14764); conditions: protein MVP Major vault protein (Q14764); replicates in separate columns
[9] = molecular target: PF-7802-labelled proteins in ARPE-19 cells (Homo sapiens, UniProt Q9Y4L1); conditions: protein HYOU1 Hypoxia up-regulated protein 1 (Q9Y4L1); one column per replicate
[10] = molecular target: PF-7802-labelled proteins in ARPE-19 cells (Homo sapiens, UniProt P62316); conditions: SNRPD2 Small nuclear ribonucleoprotein Sm D2 (P62316)
UniProt P62316, sequence (P62316 whole entry): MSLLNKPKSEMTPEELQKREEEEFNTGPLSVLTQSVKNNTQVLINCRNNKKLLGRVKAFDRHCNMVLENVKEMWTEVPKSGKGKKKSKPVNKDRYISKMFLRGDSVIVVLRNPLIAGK

[11] = molecular target: PF-7802-labelled proteins in ARPE-19 cells (Homo sapiens, UniProt Q96AG4); conditions: protein LRRC59 Leucine-rich repeat-containing protein 59 (Q96AG4); replicates in separate columns
UniProt Q96AG4, sequence (Q96AG4 whole entry): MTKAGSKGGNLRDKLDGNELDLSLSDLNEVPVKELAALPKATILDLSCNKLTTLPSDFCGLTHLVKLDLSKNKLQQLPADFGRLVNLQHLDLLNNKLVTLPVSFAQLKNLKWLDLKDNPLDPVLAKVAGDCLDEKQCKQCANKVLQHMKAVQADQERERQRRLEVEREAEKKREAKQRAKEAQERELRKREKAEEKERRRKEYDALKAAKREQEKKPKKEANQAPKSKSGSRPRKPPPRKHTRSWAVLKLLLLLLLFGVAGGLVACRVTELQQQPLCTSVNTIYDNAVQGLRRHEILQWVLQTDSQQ

[12] = molecular target: PF-7802-labelled proteins in ARPE-19 cells (Homo sapiens, UniProt P40925); conditions: protein MDH1 Malate dehydrogenase, cytoplasmic (P40925); replicates in separate columns
UniProt P40925, sequence (P40925 whole entry): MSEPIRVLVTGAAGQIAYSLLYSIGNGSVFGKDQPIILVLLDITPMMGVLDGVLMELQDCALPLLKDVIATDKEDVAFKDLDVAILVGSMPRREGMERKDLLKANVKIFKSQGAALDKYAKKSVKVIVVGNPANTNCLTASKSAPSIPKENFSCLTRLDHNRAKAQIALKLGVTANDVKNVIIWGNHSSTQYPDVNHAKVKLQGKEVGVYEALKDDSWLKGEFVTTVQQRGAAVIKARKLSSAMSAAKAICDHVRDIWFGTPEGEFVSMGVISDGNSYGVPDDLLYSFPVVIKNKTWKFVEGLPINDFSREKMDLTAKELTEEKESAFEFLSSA

[13] = molecular target: PF-7802-labelled proteins in ARPE-19 cells (Homo sapiens, UniProt Q9UII2); conditions: protein ATPIF1 ATPase inhibitor, mitochondrial (Q9UII2)
[14] = molecular target: PF-7802-labelled proteins in ARPE-19 cells (Homo sapiens, UniProt P19012); conditions: protein KRT15 Keratin, type I cytoskeletal 15 (P19012); one column per replicate
UniProt P19012, sequence (P19012 whole entry): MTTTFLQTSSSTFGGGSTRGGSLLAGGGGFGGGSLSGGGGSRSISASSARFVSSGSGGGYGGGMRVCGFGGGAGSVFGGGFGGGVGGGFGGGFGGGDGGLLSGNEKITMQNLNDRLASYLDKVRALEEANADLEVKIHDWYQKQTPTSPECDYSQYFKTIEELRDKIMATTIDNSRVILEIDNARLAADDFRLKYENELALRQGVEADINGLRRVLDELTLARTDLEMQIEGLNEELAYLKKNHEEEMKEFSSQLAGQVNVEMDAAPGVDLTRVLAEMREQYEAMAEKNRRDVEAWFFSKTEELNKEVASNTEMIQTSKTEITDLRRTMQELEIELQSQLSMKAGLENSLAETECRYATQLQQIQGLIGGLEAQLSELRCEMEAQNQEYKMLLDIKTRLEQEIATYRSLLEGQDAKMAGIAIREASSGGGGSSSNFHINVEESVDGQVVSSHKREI

[15] = molecular target: PF-7802-labelled proteins in ARPE-19 cells (Homo sapiens, UniProt Q14533); conditions: protein KRT81 Keratin, type II cuticular Hb1 (Q14533); one column per replicate
UniProt Q14533, sequence (Q14533 whole entry): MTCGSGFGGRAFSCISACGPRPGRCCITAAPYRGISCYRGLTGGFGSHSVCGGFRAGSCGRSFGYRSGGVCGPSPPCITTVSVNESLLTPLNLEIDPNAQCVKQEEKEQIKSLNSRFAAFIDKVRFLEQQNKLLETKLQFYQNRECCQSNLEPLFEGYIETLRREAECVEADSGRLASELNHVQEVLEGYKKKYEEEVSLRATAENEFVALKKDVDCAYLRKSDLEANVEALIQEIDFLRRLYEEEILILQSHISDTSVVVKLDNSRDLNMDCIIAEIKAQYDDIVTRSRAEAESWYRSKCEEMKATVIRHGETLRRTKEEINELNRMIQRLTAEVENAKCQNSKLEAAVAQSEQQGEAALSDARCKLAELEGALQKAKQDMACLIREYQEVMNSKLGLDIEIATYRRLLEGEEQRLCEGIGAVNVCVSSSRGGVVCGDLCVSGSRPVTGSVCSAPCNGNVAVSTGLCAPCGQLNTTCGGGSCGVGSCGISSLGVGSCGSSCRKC

[16] = molecular target: PF-7802-labelled proteins in ARPE-19 cells (Homo sapiens, UniProt P80723); conditions: protein BASP1 Brain acid soluble protein 1 (P80723)
UniProt P80723, sequence (P80723 whole entry): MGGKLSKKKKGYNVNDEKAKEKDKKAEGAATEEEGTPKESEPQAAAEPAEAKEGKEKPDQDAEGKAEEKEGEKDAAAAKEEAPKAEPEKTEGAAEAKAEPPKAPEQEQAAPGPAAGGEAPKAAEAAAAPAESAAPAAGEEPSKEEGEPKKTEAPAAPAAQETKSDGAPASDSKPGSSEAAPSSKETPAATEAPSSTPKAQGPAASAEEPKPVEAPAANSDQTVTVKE

[17] = molecular target: PF-7802-labelled proteins in ARPE-19 cells (Homo sapiens, UniProt Q8N4C6); conditions: protein NIN Ninein (Q8N4C6); replicates in separate columns
[18] = molecular target: PF-7802-labelled proteins in ARPE-19 cells (Homo sapiens, UniProt Q16647); conditions: protein PTGIS Prostacyclin synthase, Q16647
UniProt Q16647, sequence (Q16647 whole entry): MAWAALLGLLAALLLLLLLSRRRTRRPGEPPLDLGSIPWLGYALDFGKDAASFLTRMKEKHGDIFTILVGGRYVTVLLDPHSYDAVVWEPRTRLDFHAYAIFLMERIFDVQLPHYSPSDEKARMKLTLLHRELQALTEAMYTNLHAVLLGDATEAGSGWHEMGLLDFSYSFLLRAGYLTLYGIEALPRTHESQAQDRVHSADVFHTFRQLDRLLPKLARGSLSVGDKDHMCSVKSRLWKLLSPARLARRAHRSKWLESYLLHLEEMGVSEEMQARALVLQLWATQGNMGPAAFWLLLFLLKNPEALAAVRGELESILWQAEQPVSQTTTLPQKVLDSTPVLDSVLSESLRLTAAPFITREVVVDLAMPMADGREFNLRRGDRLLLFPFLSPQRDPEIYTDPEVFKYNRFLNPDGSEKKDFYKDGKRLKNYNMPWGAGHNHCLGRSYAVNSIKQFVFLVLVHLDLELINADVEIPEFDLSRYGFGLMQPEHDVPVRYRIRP

[19] = molecular target: PF-7802-labelled proteins in ARPE-19 cells (Homo sapiens, UniProt P62070); conditions: protein RRAS2 Ras-related protein R-Ras2, P62070
UniProt P62070, sequence (P62070 whole entry): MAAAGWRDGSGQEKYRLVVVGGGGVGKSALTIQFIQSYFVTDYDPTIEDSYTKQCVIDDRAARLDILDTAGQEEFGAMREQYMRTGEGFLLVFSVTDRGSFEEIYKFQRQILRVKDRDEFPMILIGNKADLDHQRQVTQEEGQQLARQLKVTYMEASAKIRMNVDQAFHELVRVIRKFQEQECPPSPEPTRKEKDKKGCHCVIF

[20] = molecular target: PF-7802-labelled proteins in ARPE-19 cells (Homo sapiens, UniProt Q16527); conditions: protein CSRP2 Cysteine and glycine-rich protein 2 (Q16527)
UniProt Q16527, sequence (Q16527 whole entry): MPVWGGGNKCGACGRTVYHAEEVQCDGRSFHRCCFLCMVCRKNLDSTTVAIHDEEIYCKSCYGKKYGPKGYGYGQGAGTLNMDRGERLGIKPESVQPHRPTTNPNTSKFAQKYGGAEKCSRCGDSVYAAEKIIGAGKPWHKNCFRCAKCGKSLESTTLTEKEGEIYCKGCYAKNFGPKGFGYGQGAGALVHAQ

[21] = molecular target: PF-7802-labelled proteins in ARPE-19 cells (Homo sapiens, UniProt Q3ZCQ8); conditions: TIMM50 Mitochondrial import inner membrane translocase subunit TIM50 (Q3ZCQ8)
[22] = molecular target: PF-7802-labelled proteins in ARPE-19 cells (Homo sapiens, UniProt Q15629); conditions: TRAM1 Translocating chain-associated membrane protein 1 (Q15629)
UniProt Q15629, sequence (Q15629 whole entry): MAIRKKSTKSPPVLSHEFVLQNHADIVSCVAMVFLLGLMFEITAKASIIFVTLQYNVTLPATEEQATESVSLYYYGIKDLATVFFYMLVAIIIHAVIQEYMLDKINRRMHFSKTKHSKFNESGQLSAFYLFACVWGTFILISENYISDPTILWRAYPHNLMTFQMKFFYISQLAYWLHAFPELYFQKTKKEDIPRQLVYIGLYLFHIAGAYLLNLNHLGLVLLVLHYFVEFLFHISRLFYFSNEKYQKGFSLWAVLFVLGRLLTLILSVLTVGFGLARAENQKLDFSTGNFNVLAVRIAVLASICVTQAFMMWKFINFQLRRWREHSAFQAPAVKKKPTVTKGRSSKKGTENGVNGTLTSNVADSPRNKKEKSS

[23] = molecular target: PF-7802-labelled proteins in ARPE-19 cells (Homo sapiens, UniProt Q6A162); conditions: protein KRT40 Keratin, type I cytoskeletal 40 (Q6A162); one column per replicate
UniProt Q6A162, sequence (Q6A162 whole entry): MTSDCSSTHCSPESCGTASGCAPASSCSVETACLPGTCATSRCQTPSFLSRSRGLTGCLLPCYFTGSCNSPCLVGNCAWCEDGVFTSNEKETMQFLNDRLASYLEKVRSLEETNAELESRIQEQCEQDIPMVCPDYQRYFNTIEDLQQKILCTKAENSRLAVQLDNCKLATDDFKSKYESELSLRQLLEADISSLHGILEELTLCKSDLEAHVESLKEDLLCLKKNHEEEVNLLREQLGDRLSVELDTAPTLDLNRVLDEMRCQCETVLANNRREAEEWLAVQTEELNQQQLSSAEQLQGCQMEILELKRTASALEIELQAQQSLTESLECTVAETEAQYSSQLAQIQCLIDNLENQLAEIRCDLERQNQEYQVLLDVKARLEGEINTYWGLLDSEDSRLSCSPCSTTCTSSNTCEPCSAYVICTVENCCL

[24] = molecular target: PF-7802-labelled proteins in ARPE-19 cells (Homo sapiens, UniProt A0A8I5KQE6); conditions: protein RPSAP58 Protein RPSAP58, A6NE09
[25] = molecular target: PF-7802-labelled proteins in ARPE-19 cells (Homo sapiens, UniProt P61604); conditions: protein HSPE1 10 kDa heat shock protein, mitochondrial (P61604); one column per replicate
UniProt P61604, sequence (P61604 whole entry, canonical isoform): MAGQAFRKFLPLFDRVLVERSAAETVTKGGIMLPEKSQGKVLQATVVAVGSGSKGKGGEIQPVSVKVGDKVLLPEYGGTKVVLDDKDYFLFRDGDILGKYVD

[26] = molecular target: PF-7802-labelled proteins in ARPE-19 cells (Homo sapiens, UniProt P13073); conditions: protein COX4I1 Cytochrome c oxidase subunit 4 isoform 1, mitochondrial (P13073)

CNC1CCN(C(=O)C[C@@H](Cc2ccccc2)C(=O)N[C@@H](CSC)C(=O)N[C@@H](CC2CCCCC2)[C@@H](O)C(=O)OC(C)C)CC1 [CP-108671, reference compound]
SILAC ratio (DMSO/CP-108671) ([1]; P07900 HSP90AA1 Heat shock protein HSP 90-alpha): 0.52 | Median SILAC Ratio (Heavy/Light) ([1]; protein HSP90AA1 Heat shock protein HSP 90-alpha (P07900), one column per replicate): 1.922 | Median SILAC Ratio (Heavy/Light) [2]: 0.8353 | SILAC ratio (DMSO/CP-108671) [3]: 0.65 | SILAC ratio (DMSO/CP-108671) ([4]; Q16778 HIST2H2BE Histone H2B type 2-E): 0.95 | Median SILAC Ratio (Heavy/Light) ([4]; protein HIST2H2BE Histone H2B type 2-E (Q16778), one column per replicate): 1.047 and 1.132 | SILAC ratio (DMSO/CP-108671) ([5]; P84098 RPL19 60S ribosomal protein L19): 0.91 | Median SILAC Ratio (Heavy/Light) ([5]; protein RPL19 60S ribosomal protein L19, P84098): 1.248 and 0.8409 | Median SILAC Ratio (Heavy/Light) ([6]; protein HSPA1L Heat shock 70kDa protein 1-like variant (Q53FA3), one column per replicate): 1.431 and 0.8416 | SILAC ratio (DMSO/CP-108671) ([6]; tr¦Q53FA3¦Q53FA3_HUMAN HSPA1L Heat shock 70kDa protein 1-like variant): 0.73

Cc1cc([C@H]2C[C@H]3[C@@H](C)SC(N)=N[C@@]3(c3ccc(F)cc3F)CO2)on1 [PF-9283]
Median SILAC Ratio (Heavy/Light) [7]: 0.2974 | Median SILAC Ratio (Heavy/Light) [8]: 1.786 | Median SILAC Ratio (Heavy/Light) [9]: 0.7694 | Median SILAC Ratio (Heavy/Light) [10]: 1.057 | Median SILAC Ratio (Heavy/Light) [11]: 1.355 | Median SILAC Ratio (Heavy/Light) [12]: 1.406 and 1.203 | Median SILAC Ratio (Heavy/Light) [13]: 0.8215 | Median SILAC Ratio (Heavy/Light) [14]: 30.6527 and 74.3333 | Median SILAC Ratio (Heavy/Light) [15]: 106.012 | Median SILAC Ratio (Heavy/Light) [16]: 0.9316 | Median SILAC Ratio (Heavy/Light) [17]: 0.5867 | Median SILAC Ratio (Heavy/Light) [18]: 1.856 | Median SILAC Ratio (Heavy/Light) [19]: 1.586 and 2.902 | Median SILAC Ratio (Heavy/Light) [20]: 1.668 | Median SILAC Ratio (Heavy/Light) [21]: 1.63 | Median SILAC Ratio (Heavy/Light) [22]: 0.5188 | Median SILAC Ratio (Heavy/Light) [23]: 81.831 | Median SILAC Ratio (Heavy/Light) [24]: 1.593 and 2.041 | Median SILAC Ratio (Heavy/Light) [25]: 1.386 and 0.7458 | Median SILAC Ratio (Heavy/Light) [26]: 0.1469

Source: PMC5062570 (Nature Communications, 2016)
